# Laboratory results published in PubChem BioAssay AID1434 (Sanford-Burnham Center for Chemical Genomics, 2008).
# The list shows a part of the results. The main result of the screen is listed elsewhere. These columns were measured beside it and carry no call. Compounds called inactive in the main read-out are mostly missing here.
# Target: Runt-related transcription factor 1 (Homo sapiens) + Core-binding factor subunit beta (Homo sapiens) (UniProt Q01196+Q13951)
# Assay: inhibitors of RUNX1 Runt–CBFb-SMMHC binding, primary screen, biochemical, FRET, Cerulean-Runt, Venus-CBFb-SMMHC, uHTS (AID 1434);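 also: 0% = DMSO wells and 100% = wells with excess untagged CBFb-SMMHC; inhibitors lower the FRET ratio by blocking Runt binding to CBFb-SMMHC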
# Details: Cerulean-Runt/Venus-CBFb-SMMHC FRET ratio 530/480, 1 h; retest duplicate average; at 20 µM; stronger effect = higher value
# Chain of UniProt Q01196 (Q01196 whole entry, looked up): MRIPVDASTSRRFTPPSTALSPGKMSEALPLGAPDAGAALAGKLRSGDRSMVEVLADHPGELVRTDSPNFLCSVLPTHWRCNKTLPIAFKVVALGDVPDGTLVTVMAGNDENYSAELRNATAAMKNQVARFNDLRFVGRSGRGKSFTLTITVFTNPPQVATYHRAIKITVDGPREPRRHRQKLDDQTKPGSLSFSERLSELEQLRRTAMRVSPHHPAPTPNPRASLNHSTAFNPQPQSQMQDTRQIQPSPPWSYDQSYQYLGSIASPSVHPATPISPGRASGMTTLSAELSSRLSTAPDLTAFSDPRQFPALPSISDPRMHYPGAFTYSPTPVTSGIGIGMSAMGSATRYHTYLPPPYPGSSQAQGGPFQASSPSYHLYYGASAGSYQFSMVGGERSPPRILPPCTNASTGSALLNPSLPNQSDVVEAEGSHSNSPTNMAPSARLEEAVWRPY
# Chain of UniProt Q01196 (Q13951 whole entry, looked up): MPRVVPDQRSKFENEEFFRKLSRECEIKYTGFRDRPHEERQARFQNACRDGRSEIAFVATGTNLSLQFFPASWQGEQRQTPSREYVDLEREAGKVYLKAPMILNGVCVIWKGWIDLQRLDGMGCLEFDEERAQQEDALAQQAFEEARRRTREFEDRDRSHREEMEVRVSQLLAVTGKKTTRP
row,Structure (SMILES),inhibition
1,CCOC(=O)c1cc2c(=O)n3cccc(C)c3nc2n(CC(C)C)c1=NC(=O)c1ccco1,70.6%
2,CN(C)CCCNS(=O)(=O)c1ccc(N2CCC(c3ccc(Cl)cc3)=N2)cc1,116%
3,CCOC(=O)C1=C(C)NC2=C(C(=O)CC(C)(C)C2)C1c1cccc(C)n1 (stereo not given),86.6%
4,COc1ccc(-c2cc(=O)oc3cc(OC(=O)C4CCCCC4)c(Cl)cc23)cc1,71.5%
5,CCCCn1c(NC(=O)c2ccc(Br)o2)c(S(=O)(=O)c2ccccc2)c2nc3ccccc3nc21,141%
6,CC(C)Sc1nc(N2CCOCC2)c2c(c1C#N)CC(C)(C)N(C)C2,72.9%
7,CCc1cc2c(CN3CCN(C)CC3)cc(=O)oc2cc1O,72.9%
8,CN(C)CCNc1c2c(c(C#N)c3nc4ccccc4n13)CCCC2,63.8%
9,COC(=O)Cc1cc(=O)oc2cc(O)ccc12,95.2%
10,CCN1CCc2nc(NC(=O)C(c3ccccc3)c3ccccc3)sc2C1,164%
11,COc1ccc(C(=O)N/N=C/c2c(CO)cnc(C)c2O)cc1,70.6%
12,C=CCn1c(N)c(C(=O)OC(C)CC)c2nc3ccccc3nc21 (stereo not given),137%
13,Cc1c2c(n3c(nc4ccccc43)c1C#N)N(CCN(C)C)CC2,70.6%
14,CCC(=O)Nc1cc(C)c(NC(=O)CCc2ccccc2)cn1,119%
15,COC(=O)C1=CN(C2CCCCC2)C=C(C(=O)OC)C1c1ccc2c(c1)OCO2,82.1%
16,CN(C)c1nc(-c2ccccc2)cc(C(F)(F)F)c1C#N,88.8%
17,CC12CCC(=O)N1c1c(sc3nc(N4CCOCC4)c4c(c13)CCCC4)C(=O)N2 (stereo not given),98.5%
18,CCN1CCc2nc(SCC(=O)Nc3ccc(OC)cc3)c(C#N)cc2C1,95.8%
19,c1ccc(CCNc2ccnc3cc4ccccc4cc23)cc1,70.6%
20,CCOCCCn1c(=NC(C)=O)c(C#N)cc2c(=O)n3cccc(C)c3nc21,70.6%
21,Cc1ccc(C(=O)O)cc1-n1c(C)cc(C=O)c1C,70.6%
22,COc1cc(/C=C(\C#N)c2nc3ccccc3[nH]2)c([N+](=O)[O-])cc1OCc1ccccc1,67.3%
23,COCCNC(=O)c1c(N)n(CCC2=CCCCC2)c2nc3ccccc3nc12,113%
24,CCc1nnc(NS(=O)(=O)c2ccc(N/C=C/C(=O)c3ccc(OC)cc3)cc2)s1,50.8%
25,N#Cc1c(-c2cccc(Br)c2)cc(-c2ccco2)[nH]c1=O,112%
26,CC1(C)N([O-])c2cc([N+](=O)[O-])ccc2[N+]1=O,87.2%
27,CC(=O)N(C1=C(Cl)C(=O)c2ccccc2C1=O)C1CCCCC1,64.2%
28,CC(C)OC(=O)c1c(N)n(CCCN2CCOCC2)c2nc3ccccc3nc12,129%

row,Structure (SMILES),inhibition
1,O=[N+]([O-])c1cccc(N=Cc2sc3ccccc3c2O)c1,78.1%
2,CCCN1CCc2c(sc(NC(=S)NC(=O)c3ccccc3)c2C#N)C1,70.6%
3,Cc1cccn2c(=O)c3cc(C#N)c(=NC(=O)c4cccs4)n(CCCOC(C)C)c3nc12,70.6%
4,CCOC(=O)C1=C(Cc2ccc(C)cc2)C(=O)c2ccccc2C1=O,55.2%
5,Cc1nc2c([nH]1)C1(CCN(Cc3ccccc3)CC1)C(C#N)=C(N)O2,85.9%
6,CCOCCCNC(=S)NCCCNc1nc2c(C)cc(C)cc2cc1C#N,86.3%
7,CCCn1c(=NC(=O)c2ccco2)c(C(=O)OCC)cc2c(=O)n3ccccc3nc21,72.9%
8,Cc1ccc(S(=O)(=O)c2cc(C#N)c(=O)[nH]c2N)cc1,112%
9,CN1CCc2nc(NC(=O)c3cccc(S(=O)(=O)N4CCc5ccccc54)c3)sc2C1,93.1%
10,Cc1cccc(-n2c3nc(=O)[nH]c(=O)c-3cc3cc([N+](=O)[O-])ccc32)c1,53.2%
11,COCCCNC(=O)c1cc2c(=O)n3cccc(C)c3nc2n(C(C)C)c1=N,72.9%
12,CC(=O)c1cc2cc(O)ccc2o1,83.4%
13,CCCCN1C=C(C(=O)OC)C(c2ccccc2Cl)C(C(=O)OC)=C1,70.6%
14,Cc1c(Cl)c(=O)n2c(=O)c(Cl)c(C)n12,70.6%
15,CC(C)Cn1nc(NC(=O)c2cccs2)c2cc3ccccc3nc21,66.2%
16,CCCCn1c2nc3ccccc3nc2c2c(=N)oc(C)nc21,93.9%
17,CN1CCc2c(sc3c2C(=O)NC(/C=C\c2ccccc2)N3)C1 (stereo not given),124%
18,O=c1nc(/C=C/c2ccc(-c3ccc(F)cc3)o2)cc(C(F)(F)F)[nH]1,72.9%
19,CCN(CC)c1ccc2cc(C(N)=O)c(=O)oc2c1,71.5%
20,COc1ccc2nc(N3CCCC3)c(C#N)cc2c1,72.9%
21,CN(C)S(=O)(=O)c1cccc(NC(=S)N/N=C/c2cc(Br)ccc2O)c1,54.2%
22,Nc1cccc2c1C(=O)N(Cc1cccc(Cl)c1)C2=O,70.6%
23,COc1ccc2nc3ccccc3nc2c1,56.5%
24,Cc1cc(C)c2nc(NCCCNC(=S)NCCCN(C)C)c(C#N)cc2c1,70.6%
25,C(=C\c1nccc2c1[nH]c1ccccc12)/c1ccccc1,90.1%
26,COc1nc(N)c(S(=O)(=O)c2ccccc2C)cc1C#N,92.3%
27,COc1c(O)c(O)c2oc(-c3ccccc3)cc(=O)c2c1OC,56.7%
